# In PMC4336329 (PLoS ONE, 2015):
# Hit rate of the full screen: of about 310,000 compounds, about 14,000 (4.5%) showed an effect of 50% or more. Effects have a minus sign here. Some of the results follow.
# Target: human ether-à-go-go-related gene (hERG) potassium channel (human, UniProt Q12809)
# Assay: primary screen, population patch clamp on CHO cells stably expressing hERG
# 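Further: peak tail current of the secondary pulse compared with the same well before compound.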
# human ether-à-go-go-related gene (hERG) potassium channel, sequence (Q12809 whole entry, looked up): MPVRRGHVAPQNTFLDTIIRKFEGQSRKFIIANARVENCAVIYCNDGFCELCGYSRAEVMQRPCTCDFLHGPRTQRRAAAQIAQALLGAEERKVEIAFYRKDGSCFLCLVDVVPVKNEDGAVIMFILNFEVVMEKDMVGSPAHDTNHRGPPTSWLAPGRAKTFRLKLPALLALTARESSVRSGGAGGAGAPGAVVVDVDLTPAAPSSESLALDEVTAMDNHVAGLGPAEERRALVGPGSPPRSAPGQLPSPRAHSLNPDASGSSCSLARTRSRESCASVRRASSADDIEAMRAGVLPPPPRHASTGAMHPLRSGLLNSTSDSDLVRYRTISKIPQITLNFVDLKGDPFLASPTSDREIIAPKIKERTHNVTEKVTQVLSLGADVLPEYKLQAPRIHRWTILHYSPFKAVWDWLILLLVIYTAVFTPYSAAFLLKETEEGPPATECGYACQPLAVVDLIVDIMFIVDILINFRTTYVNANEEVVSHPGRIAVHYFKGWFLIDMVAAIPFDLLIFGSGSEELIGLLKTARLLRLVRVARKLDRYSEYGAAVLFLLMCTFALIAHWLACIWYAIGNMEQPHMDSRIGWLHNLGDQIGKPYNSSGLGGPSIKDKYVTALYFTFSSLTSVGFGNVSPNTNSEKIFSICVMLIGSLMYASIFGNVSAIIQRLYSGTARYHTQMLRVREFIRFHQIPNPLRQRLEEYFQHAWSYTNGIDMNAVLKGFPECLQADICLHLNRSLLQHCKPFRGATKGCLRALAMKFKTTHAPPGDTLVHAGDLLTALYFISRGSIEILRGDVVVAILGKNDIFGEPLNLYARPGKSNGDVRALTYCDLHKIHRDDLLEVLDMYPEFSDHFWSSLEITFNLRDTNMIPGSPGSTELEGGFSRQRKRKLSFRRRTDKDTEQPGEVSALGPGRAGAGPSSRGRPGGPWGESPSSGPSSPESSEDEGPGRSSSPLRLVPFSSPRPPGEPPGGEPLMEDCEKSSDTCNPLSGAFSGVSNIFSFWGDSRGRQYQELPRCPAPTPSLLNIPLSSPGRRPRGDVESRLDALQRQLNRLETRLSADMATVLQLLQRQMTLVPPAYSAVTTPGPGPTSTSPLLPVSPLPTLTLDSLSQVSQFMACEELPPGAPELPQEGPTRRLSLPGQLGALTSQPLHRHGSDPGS
row,SMILES,"hERG current change (%, negative = inhibition) at 10uM [%]"
1,CCOP(=O)(OCC)/C(=N/OC(=O)c1ccc(OC)cc1)C(N)=O,20.7
2,O=C(N/N=C/C=C/c1ccccc1)c1ccc(Br)cc1,-6.53
3,Cc1ccc(Nc2nc(NCCO)nc3c2cnn3C)cc1Cl,11.7
4,CCN(c1cccc(C(F)(F)F)c1)S(=O)(=O)c1ccc2c(c1)CCN2C(C)=O,-2.77
5,O=C(Nc1nccs1)c1cc2c(s1)CCCCC2,6.98
6,CCOC(=O)c1ccc(NC(=O)CN2C(=O)C(CC)SC(CC)C2=O)cc1 (centres unmarked),-9.04
7,C=CCOC(=O)C1=C[C@H](C2CCCCC2)C[C@H](OCc2ccc(CO)cc2)O1,-1.78
8,COc1cccc(CN2CCNC(=O)C2CC(=O)NCC2CCOCC2)c1 (centres unmarked),15.9
9,O=c1[nH]c2ccccc2cc1-c1nnn(-c2ccc(Cl)c(Cl)c2)n1,5.79
10,COc1ccc(CCN(C)C(=O)N2CCOCC2)cc1OC,15.3
11,O=C(OCc1ccc(F)cc1)c1cc(S(=O)(=O)N2CCCCC2)ccc1N1CCOCC1,2.16
12,Cc1ccc(S(=O)(=O)c2nnn3c2nc(N2CCN(c4ccccn4)CC2)c2ccccc23)cc1C,2.74
13,CCCNc1nc(-c2ccccc2)c(C(=O)OCC)cc1C#N,-13.4
14,O=C(CN1CCCCC1)Nc1ccc(NC(=O)c2ccc(Cl)cc2)cc1Cl,13.7
15,Cn1c(SCc2cccnc2)nnc1-c1c[nH]c2ccccc12,-5.78
16,O=C1[C@H]2[C@@H](c3ccc(Cl)cc3)N3C(=O)N(c4cccc(F)c4)C(=O)[C@@]3(Cc3ccc(Cl)cc3)[C@H]2C(=O)N1C1CCCCC1,8.25
17,CCn1nnnc1SCC(=O)Nc1ccc2c(c1)OCO2,6.66
18,O=C(O)c1ccccc1/C=N/N1CCN(C2c3ccccc3-c3ccccc32)CC1,-18.7
19,COc1cccc(CNC(=O)Cc2ccc(NC3=NC4CS(=O)(=O)CC4S3)cc2)c1 (centres unmarked),8.9
20,COc1ccc(COn2nnc3ccc(S(=O)(=O)N4CCOCC4)cc32)cc1F,-40.8
21,COc1ccc(OCc2nc(N)nc(Nc3ccccc3)n2)cc1,-4.98
22,CCOC(=O)C(C)Sc1snnc1C (centres unmarked),8.98

row,SMILES,"hERG current change (%, negative = inhibition) at 10uM [%]"
1,COc1ccc(C(C(=O)NC(C)(C)C)N(C(=O)CCC(=O)Nc2cc(C)on2)c2cc(C)cc(C)c2)cc1 (centres unmarked),-5.36
2,COc1ccc(-c2noc(CCC(=O)Nc3ccc(C)c(C)c3)n2)cc1,0.384
3,COc1ccc(C(=O)N2CCN(Cc3cc(OC)c(O)c(OC)c3)CC2)cc1OC.O=C(O)C(=O)O,8.89
4,Cc1nc2ccc(NC(=O)c3ccc(N4C(=O)CCC4=O)cc3)cc2s1,17.1
5,CC(C)(C)NC(=O)COC(=O)/C=C/c1ccccc1[N+](=O)[O-],9.61
6,FC(F)(F)c1cccnc1-n1cncn1,10.7
7,CCOC(=O)C1=C(O)/C(=C/c2ccc(OCC(=O)Nc3ccc(C)cc3)cc2)N=C1C,10.6
8,O=C(CN1CCC(C(=O)c2ccc3c(c2)OCCO3)CC1)NCc1ccc(F)cc1,-30.2
9,COc1ccc(OC)c(Nc2cc(C)c3ccccc3n2)c1,2
10,CC(=O)Oc1cccc(/C=C2\C=C(c3ccc(C)cc3)OC2=O)c1,15
11,COc1ccc(Cc2c(O)nc(SCC(=O)N3CCOCC3)[nH]c2=O)cc1,9.05
12,Cc1nn(CC(=O)NCc2cccnc2)c(C)c1[N+](=O)[O-],8.85
13,Cc1noc(C)c1S(=O)(=O)Nc1ccc(C(=O)NCc2ccccc2)cc1,-0.378
14,OCC1C2c3ccccc3C(c3ccccc32)C1CO (centres unmarked),4.25
15,Nc1ncc(-c2ccccc2)n1CC1CCCO1 (centres unmarked),-7.62
16,O=C1CCCC(O)=C1C1C2=C(CCCC2=O)OC2=C1C(=O)CCC2,19
17,O=C(c1ccccc1)N1CCN(S(=O)(=O)N2CCCCCC2)CC1,4.44
18,O=C(N/N=C/c1ccncc1)c1ccccn1,13.7
19,CCOC(=O)c1nc(-c2ccccc2)oc1N(C)C,-3.12
20,CCOC(=O)CCC(=O)Nc1ccc([N+](=O)[O-])cc1C,6.89
21,CC(C)CNC(=O)c1cc2nc(C3CC3)cc(C(F)(F)F)n2n1,6.19
22,CN(C)c1ccc(C(=O)NC2(N3CCC3=O)CCCC2)cc1,21

row,SMILES,"hERG current change (%, negative = inhibition) at 10uM [%]"
1,O=C(NCCN1CCN(c2ccccc2)CC1)c1ccc2c(c1)[nH]c(=S)n1c3ccccc3nc21,21.7
2,O=C(c1ccccc1)C1CN(Cc2ccccc2)CCC1(O)c1ccccc1 (centres unmarked),-2.69
3,CCC(C(=O)N1CCC(C(N)=O)CC1)n1nc(C)n2c(cc3occc32)c1=O (centres unmarked),-23.5
4,CS(=O)(=O)NCCCNc1ccc(C(F)(F)F)cc1[N+](=O)[O-],-35.1
5,O=c1c(C=NCCCO)c(-c2ccccc2)[nH]n1-c1nc2ccccc2s1,-72.6
6,Nc1ncc(Br)cc1Br,4.15
7,CCC(CC)C(=O)Nc1ccc(C(=O)c2ccccc2)cc1,-13.3
8,O=C(CN1CCCC1)Nc1ccccc1Sc1ccccc1,-13.5
9,COc1ccccc1CN1CC(C(=O)NC2CCOCC2)CCC1=O (centres unmarked),13.3
10,N=c1c(C(=O)NC2CCCCC2)cc2c(=O)n3ccccc3nc2n1Cc1cccnc1,-73.3
11,O=C(NCCc1cccc(Cl)c1)c1cccc([N+](=O)[O-])c1,-15.7
12,COc1cccc(NC(=S)N(CCc2ccc(OC)c(OC)c2)Cc2ccccn2)c1,-41
13,CCOc1ccccc1N1CCN(c2nc3ccccc3nc2C(C#N)C(=O)OC)CC1 (centres unmarked),10.7
14,COc1ccccc1NC(=O)c1ccc2snnc2c1,-18.3
15,COCCN1CCN(C(=O)C2CCC(=O)N(CCc3ccccc3)C2)CC1 (centres unmarked),5.79
16,Cc1c(NS(=O)(=O)c2cccc(C(=O)O)c2)c(=O)n(-c2ccccc2)n1C,-0.297
17,Cl.OCC(CO)(CO)NCc1ccc(-c2ccccc2)cc1,-0.626
18,Nc1scc2c(C(=O)N/N=C/c3ccc(Cl)cc3)nn(-c3ccccc3)c(=O)c12,-7.61
19,O=C(c1cn(CC(=O)N2CCCC2)c2ccccc12)C1CCCCC1,-14.5
20,c1ccc(-c2noc(-c3cccc4ccccc34)n2)nc1,1.58
21,COc1ccc(-n2nc(C(=O)NCC(=O)Nc3cccc(NC(C)=O)c3)c3ccccc3c2=O)cc1,16.1
22,O=C(c1cnn2c(C(F)(F)F)cc(-c3ccco3)nc12)N1CCc2ccccc2C1,-8.6

row,SMILES,"hERG current change (%, negative = inhibition) at 10uM [%]"
1,O=C1NC(=O)C(=Cc2ccc(-c3ccc(Cl)cc3)o2)C(=O)N1,9.09
2,O=S(=O)(NC1CC1)c1ccc(S(=O)(=O)N2CCCC3(CCCCC3)C2)cc1,12.7
3,Cc1ccc(S(=O)(=O)N(C)C)cc1NC(=O)C(C)N(C)CCOc1ccc(Cl)cc1 (centres unmarked),-26.7
4,CCOC(=O)C1CCN(C(=S)Nc2ccc(CC)cc2)CC1,-10.2
5,O=C(COC(=O)CNC(=O)c1ccccc1F)NC12CC3CC(CC(C3)C1)C2,0.652
6,CCC(CC)C(=O)N=C1SC2CS(=O)(=O)CC2N1CCc1ccc(OC)cc1 (centres unmarked),-20.7
7,CC1=CC(c2ccccc2)n2nc(N3C(=O)C4CC=CCC4C3=O)nc2N1 (centres unmarked),-7.93
8,Cc1cc(CN(C)Cc2cn(C)nc2-c2ccc(Oc3ccccc3)cc2)on1,-10.9
9,CN1CCC(N2CCN(c3cccc(C(F)(F)F)c3)CC2)CC1,-12.8
10,Cc1noc(C)c1CSCC(=O)OCc1nc2ccccc2c(=O)n1CC#N,8.38
11,CCOc1ccc(-n2c(O)c(C=NCCN3CCNCC3)c(=O)[nH]c2=O)cc1,6.99
12,CC1(NC(=S)Nc2ccc3ccccc3c2)CCS(=O)(=O)C1 (centres unmarked),13.3
13,CCN(CC)C(=O)C1CCN(S(=O)(=O)c2ccc(C3CNC(=O)C3)cc2)CC1 (centres unmarked),7.56
14,COc1ccc(C2/C(=C(\O)c3ccc4c(c3)OCCO4)C(=O)C(=O)N2Cc2ccco2)c(OC)c1 (centres unmarked),-9.64
15,O=C(c1ccccc1)n1nc(-c2ccccc2)nc1NCc1ccco1,8.15
16,Cc1ccn2cc(CNS(=O)(=O)c3ccc(Cl)s3)nc2c1,-26.1
17,CN(/N=C/c1cc(Br)cc(Br)c1O)c1ccccc1,32.8
18,Cc1c(C(=O)N2CCOCC2)[nH]c2c1C(=O)CC(c1ccccc1Cl)C2 (centres unmarked),-23.7
19,COc1ccc(NC(=S)NNc2ccc([N+](=O)[O-])cc2S(=O)(=O)Nc2ccc(C)cc2C)cc1,-7.3
20,CC(C)OC(=O)CC1C(=O)NCCN1C(=O)COc1ccc(C(C)(C)C)cc1 (centres unmarked),9.59
